Test results as given in a compilation of properties of binary mixtures (doi:10.1016/j.molliq.2017.08.019).
The densities may have been worked out from excess volumes.

Assay: xn = mol fraction of the nth substance listed
Settings: 100 kPa

CCCC[n+]1ccn(C)c1.F[P-](F)(F)(F)(F)F + CCCC[n+]1ccn(C)c1.O=S(=O)([O-])C(F)(F)F
x1 = 1
Settings | mass density [kg/m3]
293.15 K | 1371.4
298.15 K | 1367.2
303.15 K | 1362.9
308.15 K | 1358.8
313.15 K | 1354.7
323.15 K | 1346.5
328.15 K | 1342.4

CCCC[n+]1ccn(C)c1.O=S(=O)([O-])C(F)(F)F + CCCC[n+]1ccn(C)c1.F[P-](F)(F)(F)(F)F
mass density [kg/m3]
Settings | 293.15 K | 298.15 K | 303.15 K | 308.15 K | 313.15 K | 318.15 K | 323.15 K | 328.15 K
x2 = 0 | 1301.5 | 1297.5 | – | 1289.7 | 1285.7 | 1281.8 | 1277.9 | 1273.9
x2 = 0.0005 | 1301.5 | 1297.6 | – | 1289.7 | – | 1281.9 | – | 1274
x2 = 0.0006 | 1301.5 | 1297.6 | 1293.7 | 1289.7 | – | – | – | 1274
x2 = 0.0007 | 1301.5 | – | 1293.7 | 1289.7 | 1285.8 | 1281.9 | 1278 | 1274
x2 = 0.0009 | 1301.5 | 1297.6 | 1293.7 | 1289.8 | – | 1281.9 | 1278 | 1274.1
x2 = 0.0018 | 1301.6 | – | 1293.8 | 1289.8 | 1285.9 | – | 1278.1 | 1274.2
x2 = 0.0061 | – | 1298.1 | 1294.2 | 1290.3 | 1286.4 | 1282.5 | 1278.5 | 1274.7
x2 = 0.01 | 1302.4 | 1298.5 | 1294.5 | 1290.6 | 1286.8 | 1282.9 | 1279 | 1275.1
x2 = 0.0501 | 1305.8 | 1302 | 1298.2 | 1294.4 | 1290.7 | 1286.9 | 1283.1 | 1279.3
x2 = 0.0806 | 1308.4 | – | – | 1297.1 | 1293.4 | 1289.7 | 1286 | 1282.2
x2 = 0.1 | 1310 | 1306.2 | – | 1298.8 | 1295.1 | 1291.5 | 1287.8 | 1284
x2 = 0.15 | – | 1310.3 | 1306.5 | – | 1299.3 | – | 1292.1 | –
x2 = 0.1999 | – | 1314.2 | 1310.4 | – | – | – | 1296.1 | –
x2 = 0.3 | 1325.7 | 1321.7 | 1317.7 | 1314.3 | 1310.7 | – | – | 1299.5
x2 = 0.3999 | 1333.1 | 1328.8 | 1324.5 | 1321 | 1317.4 | 1313.7 | 1310.1 | 1305.7
x2 = 0.5002 | 1340.1 | 1335.5 | 1331.2 | 1327.6 | – | 1319.9 | 1316.2 | 1311.8
x2 = 0.6 | 1346.6 | 1342 | 1337.6 | 1333.8 | 1329.7 | 1326 | 1322 | 1317.7
x2 = 0.7 | – | 1348.2 | 1343.9 | 1340 | 1335.7 | 1331.9 | 1327.9 | 1323.7
x2 = 0.7995 | 1358.7 | 1354.2 | 1349.9 | 1345.9 | – | 1337.9 | 1333.6 | 1329.7
x2 = 0.8997 | 1364.8 | 1360.5 | 1356.1 | 1352 | 1348 | – | – | 1335.8
